Publication PMC4336329 (PLoS ONE, 2015)
Out of some 310,000 compounds screened, about 14,000 (4.5%) showed an effect of 50% or more. Effects have a minus sign here. The list shows a part of the results.
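Further: peak tail current of the secondary pulse compared with the same well before compound.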

The compounds below were run against human ether-à-go-go-related gene (hERG) potassium channel (human, UniProt Q12809) (assay: primary screen, population patch clamp on CHO cells stably expressing hERG).
human ether-à-go-go-related gene (hERG) potassium channel, sequence (Q12809 whole entry, looked up): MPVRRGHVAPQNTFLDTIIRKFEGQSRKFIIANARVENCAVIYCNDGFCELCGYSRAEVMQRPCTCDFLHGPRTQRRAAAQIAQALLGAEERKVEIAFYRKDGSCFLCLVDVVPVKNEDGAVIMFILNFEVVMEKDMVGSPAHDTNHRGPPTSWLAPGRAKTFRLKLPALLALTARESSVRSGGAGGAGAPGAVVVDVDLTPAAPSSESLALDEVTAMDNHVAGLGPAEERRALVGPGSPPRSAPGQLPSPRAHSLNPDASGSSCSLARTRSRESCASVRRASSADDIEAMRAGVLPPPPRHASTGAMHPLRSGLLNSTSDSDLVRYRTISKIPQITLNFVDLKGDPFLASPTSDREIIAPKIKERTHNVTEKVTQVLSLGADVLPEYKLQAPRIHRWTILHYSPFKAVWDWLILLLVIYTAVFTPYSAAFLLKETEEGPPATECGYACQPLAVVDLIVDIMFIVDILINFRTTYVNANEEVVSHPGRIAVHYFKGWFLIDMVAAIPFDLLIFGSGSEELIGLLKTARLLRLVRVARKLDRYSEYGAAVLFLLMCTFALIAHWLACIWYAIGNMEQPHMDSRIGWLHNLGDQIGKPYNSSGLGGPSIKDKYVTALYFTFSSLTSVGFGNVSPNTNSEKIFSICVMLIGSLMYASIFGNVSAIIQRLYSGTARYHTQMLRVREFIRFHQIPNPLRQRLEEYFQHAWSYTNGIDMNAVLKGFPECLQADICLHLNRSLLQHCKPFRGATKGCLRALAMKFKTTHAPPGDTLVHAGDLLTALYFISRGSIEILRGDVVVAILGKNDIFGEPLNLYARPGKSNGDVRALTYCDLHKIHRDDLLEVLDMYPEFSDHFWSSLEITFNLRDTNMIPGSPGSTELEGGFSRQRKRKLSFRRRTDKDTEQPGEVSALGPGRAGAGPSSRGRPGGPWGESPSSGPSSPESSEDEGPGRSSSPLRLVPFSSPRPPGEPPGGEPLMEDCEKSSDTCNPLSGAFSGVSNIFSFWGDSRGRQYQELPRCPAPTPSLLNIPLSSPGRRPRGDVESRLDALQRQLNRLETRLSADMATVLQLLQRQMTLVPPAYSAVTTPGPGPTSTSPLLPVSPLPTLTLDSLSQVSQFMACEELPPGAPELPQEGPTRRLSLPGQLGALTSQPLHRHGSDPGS
With `CCN1CCN(Cc2cc(=O)oc3ccc(C)cc23)CC1` the “hERG current change (%, negative = inhibition) at 10uM” value was -3.04%.
`COC(=O)C1=C(C(=O)OC)[C@@H]2N(C)c3ccccc3[C@@]23C[C@@H](C(=O)OC)N(C(=O)c2ccc(Br)cc2)C3=N1` was tested, and the “hERG current change (%, negative = inhibition) at 10uM” value was -1.06%.
`COc1ccc(CP(=O)(c2ccccc2)c2ccccc2)cc1` was tested, and the “hERG current change (%, negative = inhibition) at 10uM” value was 14.5%.
`CC(NC(=O)c1ccco1)C(=O)N1CCN(c2cccc(Cl)c2)CC1` (stereo not shown) was tested, and the “hERG current change (%, negative = inhibition) at 10uM” value was -7.49%.
For `CCC(=O)N1CCc2cc(S(=O)(=O)CCC(=O)NCc3ccccc3OC)ccc21`, the “hERG current change (%, negative = inhibition) at 10uM” value was 9.35%.
With `COc1ccc(CC2(CO)CCN(C(C)Cc3ccc(Cl)cc3)CC2)cc1` (stereo not shown) the “hERG current change (%, negative = inhibition) at 10uM” value was -80.4%.
In the case of `CCn1cc(CN2CCC(C(=O)Nc3ccc(Oc4ccccc4F)cc3)CC2)c(C)n1`, the “hERG current change (%, negative = inhibition) at 10uM” value is reported as -72.9%.
`CCN(Cc1ccccc1)Cc1c(C)[nH]c2c(C)c(C)ccc2c1=O` was tested, and the “hERG current change (%, negative = inhibition) at 10uM” value was -40.6%.
For `CCC(=O)N1N=C2C3CCN(CC3)C2C1c1ccccc1` (stereo not shown), the “hERG current change (%, negative = inhibition) at 10uM” value was -30.3%.
For `Oc1nc(Nc2ccc(F)cc2)sc1/C=C1\C=Nc2ccccc21`, the “hERG current change (%, negative = inhibition) at 10uM” value was 7.84%.
`O=C(O)COCC(=O)NCc1csc2ccccc12` was tested, and the “hERG current change (%, negative = inhibition) at 10uM” value was 2.75%.
For `COc1ccc(C2(c3ccc(OC)cc3)NC(=O)N(CC(=O)Nc3cc(C)ccc3OC)C2=O)cc1`, the “hERG current change (%, negative = inhibition) at 10uM” value was 3.34%.
`COc1cc(OC)cc(-n2nnnc2SCC(=O)NCc2cccs2)c1` was tested, and the “hERG current change (%, negative = inhibition) at 10uM” value was -9.05%.
With `O=C(c1ccccc1)c1ccc2ccccc2n1` the “hERG current change (%, negative = inhibition) at 10uM” value was -1.71%.
For `O=C1C2N=NN(CC(=O)N3N=C(c4ccccc4)CC3c3ccc([N+](=O)[O-])cc3)C2C(=O)N1c1ccccc1` (stereo not shown), the “hERG current change (%, negative = inhibition) at 10uM” value was -8.49%.
For `O=C(CN1C(=O)C2C3CCC(C3)C2C1=O)NCc1ccco1` (stereo not shown), the “hERG current change (%, negative = inhibition) at 10uM” value was 24.2%.
In the case of `COc1cc(/C=C2\CCn3c2nc2cc(C(=O)O)ccc2c3=O)ccc1OC(F)F`, the “hERG current change (%, negative = inhibition) at 10uM” value is reported as 20.1%.
For `CN1C(=O)CCC(CCC(=O)O)(c2ccccc2O)C1=O` (stereo not shown), the “hERG current change (%, negative = inhibition) at 10uM” value was 20.8%.
With `Cc1ccc(S(=O)(=O)N(C)CC(=O)Oc2ccc(-c3nnco3)cc2)cc1` the “hERG current change (%, negative = inhibition) at 10uM” value was 9.31%.
In the case of `CC(C)(C)n1nnnc1CN1CCN(C(c2ccccc2)c2ccccc2)CC1`, the “hERG current change (%, negative = inhibition) at 10uM” value is reported as -8.48%.
With `O=C(NCCOc1nc(N2CCCCC2)nc(N2CCCCC2)n1)Nc1ccccc1` the “hERG current change (%, negative = inhibition) at 10uM” value was 25.5%.
With `COc1ccccc1C#Cc1ccc2c(=O)c3ccccc3n(C)c2c1` the “hERG current change (%, negative = inhibition) at 10uM” value was 9.32%.
For `CCOC(=O)c1c(-c2ccc(C)o2)csc1NC(=O)COC(=O)c1ccc(NC(N)=O)cc1`, the “hERG current change (%, negative = inhibition) at 10uM” value was -20.2%.
`CC(C)(C)c1ccc(C(=O)O)c(C(=O)c2ccccc2)c1` was tested, and the “hERG current change (%, negative = inhibition) at 10uM” value was -5.46%.
In the case of `COc1cc(/C=N/N2C(=O)C3C4C=CC(CC4)C3C2=O)ccc1O` (stereo not shown), the “hERG current change (%, negative = inhibition) at 10uM” value is reported as 8.42%.
In the case of `COc1ccc(S(=O)(=O)N2Cc3ccccc3CC2C(=O)O)cc1` (stereo not shown), the “hERG current change (%, negative = inhibition) at 10uM” value is reported as -13.1%.
For `O=C(NCCN1CCCCC1)c1ccc2c(c1)OCCO2`, the “hERG current change (%, negative = inhibition) at 10uM” value was 5.6%.
`O=C(O)c1ccc(COc2ccc(Cl)cc2)o1` was tested, and the “hERG current change (%, negative = inhibition) at 10uM” value was 15%.
For `O=C1C2=C(CCCC2)C(=O)N1CNc1ccccc1`, the “hERG current change (%, negative = inhibition) at 10uM” value was 16.3%.
With `Cc1ccccc1-c1nc(CS(=O)(=O)CC(=O)N2CCN(C)CC2)c(C)o1` the “hERG current change (%, negative = inhibition) at 10uM” value was 2.73%.
In the case of `Cn1cnc([N+](=O)[O-])c1Sc1ncccc1N`, the “hERG current change (%, negative = inhibition) at 10uM” value is reported as -1.61%.
In the case of `CCOC(=O)c1ccc(C(=O)NNC(=O)C2C3C=CC(C3)C2C(=O)O)cc1` (stereo not shown), the “hERG current change (%, negative = inhibition) at 10uM” value is reported as 16%.
In the case of `CCCn1c(SCC(=O)c2cc(C)n(-c3ccc4c(c3)OCO4)c2C)n[nH]c1=O`, the “hERG current change (%, negative = inhibition) at 10uM” value is reported as -12.2%.
In the case of `COc1ccc(C(=O)NC(=S)Nc2ccc(Cc3ccncc3)cc2)cc1`, the “hERG current change (%, negative = inhibition) at 10uM” value is reported as 15%.
`O=C(NCCN1CCOCC1)c1cc(-c2cccs2)on1` was tested, and the “hERG current change (%, negative = inhibition) at 10uM” value was -13%.
For `COc1cc2ccc(=O)oc2cc1OCC(O)C(C)(C)O` (stereo not shown), the “hERG current change (%, negative = inhibition) at 10uM” value was -3.54%.
With `C=CCc1ccc(OCCCCCN2CCOCC2)c(OC)c1.O=C(O)C(=O)O` the “hERG current change (%, negative = inhibition) at 10uM” value was -18.1%.
`c1csc(-c2nn3cnnc3c3ccccc23)c1` was tested, and the “hERG current change (%, negative = inhibition) at 10uM” value was -15.9%.
`COc1ccc(OC)c([N+](=O)[O-])c1C(N)=O` was tested, and the “hERG current change (%, negative = inhibition) at 10uM” value was 14.4%.
For `O=C(O)c1cc(-c2ccccc2)n(-c2ccccc2C(=O)O)n1`, the “hERG current change (%, negative = inhibition) at 10uM” value was 10.9%.
`CCOC(=O)N1CCN(C(=O)c2ccc3c(c2)N(Cc2ccccc2)CCS3)CC1` was tested, and the “hERG current change (%, negative = inhibition) at 10uM” value was -37.3%.
With `COc1cc(NC(=O)Nc2ccc(C)cc2)cc([N+](=O)[O-])c1` the “hERG current change (%, negative = inhibition) at 10uM” value was 1.05%.
`O=S(=O)(Nc1cc(Sc2cccc3cccnc23)c(O)c2ccccc12)c1ccc(F)cc1` was tested, and the “hERG current change (%, negative = inhibition) at 10uM” value was 5.3%.
